Measurements reported in article PMC4773420 (Nature Communications, 2016).
These are yes or no findings as the source states them, for the method shown. For some of these results: Binding seen in cells or lysates may run through a third protein. Some results given as binding are weak or reduced against the parent protein; the word gives no strength. For some of these results: Where a sequence is shown, tags or fusion partners need not be part of it. Values belong to the substance of their own block, whether it stands above or below them.

The chains behind the UniProt entries cited, without tags or fusion partners. Where a name states a change or a piece, a line headed by the entry shows the natural chain unless it says otherwise. A line that says so, or that is headed by a name, gives the form on record, which may keep a tag or linker. Residues count along the entry.
UniProt P62324, residues 1-128: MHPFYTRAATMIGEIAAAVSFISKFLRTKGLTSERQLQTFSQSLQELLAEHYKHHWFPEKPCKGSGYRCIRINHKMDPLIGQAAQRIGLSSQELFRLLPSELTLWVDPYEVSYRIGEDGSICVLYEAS
GFP-BTG2(APRO)-HA (P78543, residues 1-126): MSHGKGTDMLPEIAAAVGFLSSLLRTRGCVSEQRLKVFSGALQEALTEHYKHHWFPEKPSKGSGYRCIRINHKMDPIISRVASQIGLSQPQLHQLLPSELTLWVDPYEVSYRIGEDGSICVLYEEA
BD-BTG2(APRO)boxC (P78543, form named): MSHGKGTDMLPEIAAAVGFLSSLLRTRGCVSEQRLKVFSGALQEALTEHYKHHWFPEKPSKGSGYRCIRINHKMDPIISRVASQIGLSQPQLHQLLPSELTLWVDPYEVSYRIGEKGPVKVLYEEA
UniProt P11940: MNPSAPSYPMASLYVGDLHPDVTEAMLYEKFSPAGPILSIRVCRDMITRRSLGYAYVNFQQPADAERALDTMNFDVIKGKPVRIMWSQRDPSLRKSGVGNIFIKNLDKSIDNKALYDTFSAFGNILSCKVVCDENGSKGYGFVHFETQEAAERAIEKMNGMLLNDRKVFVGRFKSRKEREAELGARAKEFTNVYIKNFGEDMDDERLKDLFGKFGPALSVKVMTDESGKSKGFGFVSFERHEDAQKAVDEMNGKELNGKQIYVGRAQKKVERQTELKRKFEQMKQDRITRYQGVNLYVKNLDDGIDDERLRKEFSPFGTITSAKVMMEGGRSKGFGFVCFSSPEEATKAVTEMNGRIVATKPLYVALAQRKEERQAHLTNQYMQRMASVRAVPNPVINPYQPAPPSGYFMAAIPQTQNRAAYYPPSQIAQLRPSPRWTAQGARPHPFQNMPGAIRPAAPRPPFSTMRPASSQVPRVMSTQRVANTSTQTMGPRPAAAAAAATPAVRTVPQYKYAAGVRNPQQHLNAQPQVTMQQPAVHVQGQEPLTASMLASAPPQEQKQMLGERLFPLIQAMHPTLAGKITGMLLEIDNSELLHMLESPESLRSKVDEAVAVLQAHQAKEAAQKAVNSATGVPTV
6His-PABPC1(1–190): residues 1-190 of P11940
6His-PABPC1(1–99): residues 1-99 of P11940
6His-PABPC1(85–190): residues 85-190 of P11940
UniProt Q9UIV1: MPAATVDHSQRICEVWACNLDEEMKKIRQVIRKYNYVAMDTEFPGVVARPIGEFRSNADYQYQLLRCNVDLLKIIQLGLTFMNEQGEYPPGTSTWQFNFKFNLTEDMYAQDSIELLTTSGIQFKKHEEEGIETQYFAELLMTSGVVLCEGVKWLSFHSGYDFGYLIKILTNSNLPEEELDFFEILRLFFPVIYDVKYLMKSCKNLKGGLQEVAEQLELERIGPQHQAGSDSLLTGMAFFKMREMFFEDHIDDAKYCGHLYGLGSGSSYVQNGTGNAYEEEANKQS

Assays:
[1] = target: T1, BD-Tob1(APRO) (human) (UniProt P50616); assay: two-hybrid; pairwise; diploid yeast Y187/L40 with LexA-Binding-Domain and Gal4-Activating-Domain plasmids; β-galactosidase assays (Beta-Glo)
T1 sequence: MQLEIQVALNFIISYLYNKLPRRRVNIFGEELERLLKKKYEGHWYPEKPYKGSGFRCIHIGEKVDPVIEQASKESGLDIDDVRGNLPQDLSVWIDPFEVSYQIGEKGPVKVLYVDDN

[2] = target: BD-BTG1(APRO) (human) (UniProt P62324); assay: as above
[3] = target: BD-BTG2(APRO)boxC (human) (UniProt P78543); assay: as above
[4] = target: BD-BTG2(APRO)wt (human) (UniProt P78543); assay: as above
[5] = target: BD-BTG2(APRO)wt (human) (UniProt P78543); assay: two-hybrid; screen of a human fibroblast cDNA library with a LexA-Binding-Domain-BTG2(APRO) bait (Hybrigenics)
[6] = target: T2, GFP-Tob1(APRO)-HA (human) (UniProt P50616); assay: co-IP; HEK293 cells transfected with HA-tagged GFP fusions; lysis in IPP150 (10 mM Tris-HCl pH 8.0, 150 mM NaCl, 1% Igepal CA-630); anti-HA agarose 1 h at 4 °C; blot with anti-GFP and anti-CNOT7
T2 sequence: T1 sequence

[7] = target: 6His-PABPC1(1–190) (human) (UniProt P11940); assay: pull-down; PD with BTG2, PABPC1 and CAF1 together (Supplementary Fig. 3a); proteins co-expressed in E. coli, lysates; His- or GST-PD not told
[8] = target: 6His-PABPC1(1–99) (human) (UniProt P11940); assay: pull-down; His-PD: GST- and His-proteins co-expressed in E. coli; lysate on Ni-NTA resin 1 h at 4 °C in 50 mM Tris-HCl pH 8.0, 40 mM imidazole, 300 mM NaCl, 1 mM β-mercaptoethanol, 0.1% Igepal; SDS-PAGE, Coomassie
[9] = target: 6His-PABPC1(85–190) (human) (UniProt P11940); assay: as above
[10] = target: 6His-PABPC1(1–190) (human) (UniProt P11940); assay: as above
[11] = target: 6His-PABPC1(1–99) (human) (UniProt P11940); assay: pull-down; PD with recombinant proteins expressed in E. coli (Supplementary Fig. 8a); His- or GST-PD not told
[12] = target: GFP-BTG2(APRO)-HA (human) (UniProt P78543); assay: co-IP; HEK293 cells transfected, treated with 0.25 mM Dithio-bis Succinimidyl Propionate 30 min, lysed in Triton-lysis buffer (10 mM Tris-HCl pH 7.5, 150 mM NaCl, 0.5 mM EDTA, 0.5% Triton X-100) with 40 μg/ml RNAse A; GFP-Trap 1 h at 4 °C; blot with anti-GFP and anti-PABPC1

Substance: AD-PABPC1(1–146) (from UniProt P11940 1-146) (domain or fragment)
binding [2]: binds
binding [1]: no binding
binding [3]: no binding
binding [4]: binds
binding [5]: binds

Substance: CNOT7 (CAF1 paralogue), endogenous (from UniProt Q9UIV1 1-285) (enzyme)
binding [6]: binds

Substance: GST-BTG2(APRO) (from UniProt P78543 1-126) (domain or fragment)
binding [7]: binds
binding [8]: binds
binding [9]: binds weakly
binding [10]: binds
binding [11]: binds

More lines, now with the values ahead:

binding [1]: binds
Substance: AD-CNOT7 (from UniProt Q9UIV1 11-262) (enzyme)

binding [12]: binds
Substance: PABPC1, endogenous (from UniProt P11940 1-636)
